{"source": "paper PMC4336329", "about": "(PLoS ONE, 2015)", "note": "About 2,200 (0.71%) of roughly 310,000 compounds showed an effect of 50% or more. Effects have a minus sign here. This is one part of the list."}
{"biological_target": "human ether-à-go-go-related gene (hERG) potassium channel (human, UniProt Q12809)", "sequence (Q12809 whole entry, looked up)": "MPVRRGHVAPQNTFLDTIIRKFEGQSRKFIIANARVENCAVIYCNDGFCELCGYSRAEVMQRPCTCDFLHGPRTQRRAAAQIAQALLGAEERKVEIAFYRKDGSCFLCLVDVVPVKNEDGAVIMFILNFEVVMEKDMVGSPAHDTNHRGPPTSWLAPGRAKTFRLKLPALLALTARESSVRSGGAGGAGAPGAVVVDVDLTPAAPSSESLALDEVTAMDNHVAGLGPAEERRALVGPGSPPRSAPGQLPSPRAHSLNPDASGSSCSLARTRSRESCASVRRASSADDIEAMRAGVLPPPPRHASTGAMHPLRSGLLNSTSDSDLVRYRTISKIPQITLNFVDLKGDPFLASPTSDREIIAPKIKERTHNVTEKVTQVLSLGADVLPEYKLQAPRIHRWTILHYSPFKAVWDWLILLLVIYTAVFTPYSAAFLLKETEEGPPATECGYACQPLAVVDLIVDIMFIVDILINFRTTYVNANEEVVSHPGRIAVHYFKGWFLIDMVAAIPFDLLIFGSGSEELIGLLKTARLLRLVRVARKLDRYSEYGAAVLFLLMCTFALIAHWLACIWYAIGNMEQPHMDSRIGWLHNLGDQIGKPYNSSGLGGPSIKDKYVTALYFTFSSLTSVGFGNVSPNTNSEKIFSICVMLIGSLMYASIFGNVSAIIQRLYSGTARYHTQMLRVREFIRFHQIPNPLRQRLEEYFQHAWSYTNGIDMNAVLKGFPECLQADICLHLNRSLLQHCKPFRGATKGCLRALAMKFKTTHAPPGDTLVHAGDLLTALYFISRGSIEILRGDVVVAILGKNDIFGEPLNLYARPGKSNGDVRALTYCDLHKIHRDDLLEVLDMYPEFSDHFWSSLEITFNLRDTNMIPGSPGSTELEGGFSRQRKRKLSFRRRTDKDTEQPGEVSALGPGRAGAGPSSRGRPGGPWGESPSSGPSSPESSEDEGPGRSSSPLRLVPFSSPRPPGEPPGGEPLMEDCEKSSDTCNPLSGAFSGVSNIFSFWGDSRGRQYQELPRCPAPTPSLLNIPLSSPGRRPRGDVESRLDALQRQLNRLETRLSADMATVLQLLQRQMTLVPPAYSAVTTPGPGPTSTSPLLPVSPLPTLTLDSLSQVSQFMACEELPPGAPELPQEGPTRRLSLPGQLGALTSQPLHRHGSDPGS", "assay": "primary screen, population patch clamp on CHO cells stably expressing hERG", "units": {"hERG current change (%, negative = inhibition) at 1uM": "%"}}
{"compound": "COc1cc(C(c2nnnn2C2CCCC2)N2CCc3ccccc3C2)ccc1O.Cl", "note": "(centres unmarked)", "hERG current change (%, negative = inhibition) at 1uM": -4.53}
{"compound": "O=C(Cn1cc(Cl)c([N+](=O)[O-])n1)NCCC1=CCCCC1", "hERG current change (%, negative = inhibition) at 1uM": 19.9}
{"compound": "COc1ccc(N2CC(O)=C(c3nc(-c4ccc(Cl)cc4)cs3)C2=N)cc1", "hERG current change (%, negative = inhibition) at 1uM": 14.5}
{"compound": "CNC(=O)C1CC(=O)N(CCc2ccccc2)C(=Nc2ccc(OC)cc2)S1", "note": "(centres unmarked)", "hERG current change (%, negative = inhibition) at 1uM": 8.93}
{"compound": "CCOC(=O)N1CCN(S(=O)(=O)c2cc(OCC)ccc2OCC)CC1", "hERG current change (%, negative = inhibition) at 1uM": 11}
{"compound": "CC(C)CNC(=O)C1CCN(S(=O)(=O)c2ccc(-n3cnnn3)cc2)CC1", "hERG current change (%, negative = inhibition) at 1uM": -15.5}
{"compound": "COc1ccc(S(=O)(=O)N2CCC(C(=O)NCCN3CCOCC3)CC2)cc1", "hERG current change (%, negative = inhibition) at 1uM": 13.1}
{"compound": "CCc1cc2cc3c(cc2nc1SCC(=O)OC(C)C)OCO3", "hERG current change (%, negative = inhibition) at 1uM": 9.59}
{"compound": "NC(=O)c1cnn2c(C(F)(F)F)cc(-c3ccccc3)nc12", "hERG current change (%, negative = inhibition) at 1uM": -2.43}
{"compound": "O=C(N1CCOCC1)n1cnc2ccccc21", "hERG current change (%, negative = inhibition) at 1uM": 7.66}
{"compound": "O=C(c1ccc([N+](=O)[O-])cc1Cl)N1CCN(c2ccccn2)CC1", "hERG current change (%, negative = inhibition) at 1uM": 3.75}
{"compound": "Nc1nonc1-n1nnc(C(=O)N/N=C/c2ccc(OCc3ccccc3)cc2)c1CN1CCCCC1", "hERG current change (%, negative = inhibition) at 1uM": 17.8}
{"compound": "CCCC(=O)NCCc1nc2cc([N+](=O)[O-])ccc2n1C", "hERG current change (%, negative = inhibition) at 1uM": 14.4}
{"compound": "O=c1[nH]ncc(N/N=C\\c2ccncc2)c1Cl", "hERG current change (%, negative = inhibition) at 1uM": 10.2}
{"compound": "Cn1c(=O)c(=O)n(C)c2cc(S(=O)(=O)N3CC(=O)N(CCc4ccccc4)C(=O)C3)ccc21", "hERG current change (%, negative = inhibition) at 1uM": 17.6}
{"compound": "COc1cccc(NP(=O)(Oc2ccc(Cl)cc2)Oc2ccc(Cl)cc2)c1", "hERG current change (%, negative = inhibition) at 1uM": 2.61}
{"compound": "CCOC(=O)Nc1ccc2c(c1)N(C(=O)CCN1CCN3CCCC3C1)c1ccccc1CC2.Cl.O", "note": "(centres unmarked)", "hERG current change (%, negative = inhibition) at 1uM": 10.9}
{"compound": "Cc1n[nH]c(C)c1CCCCOc1ccccc1F", "hERG current change (%, negative = inhibition) at 1uM": 8.91}
{"compound": "CC(C)(C)OC(=O)NCCC(=O)N/N=C/c1cccc2nccnc12", "hERG current change (%, negative = inhibition) at 1uM": 2.42}
{"compound": "O=C(CN1C(=O)c2ccccc2C1=O)Nc1cccc2cccnc12", "hERG current change (%, negative = inhibition) at 1uM": 7.27}
{"compound": "COc1ccc(C(=O)COC(=O)CN2CC(=O)Oc3ccccc32)cc1Br", "hERG current change (%, negative = inhibition) at 1uM": 15}
{"compound": "COC(=O)CCN(C(=O)c1ccc([N+](=O)[O-])cc1)c1ccccn1", "hERG current change (%, negative = inhibition) at 1uM": 12.1}
{"compound": "CCOC(=O)N1CCN(c2ccc(C(=O)c3ccccc3)cc2F)CC1", "hERG current change (%, negative = inhibition) at 1uM": 0.783}
{"compound": "CCc1cc(Cn2nc(-c3ccccc3)cc2C(=O)NCc2cccc(C(F)(F)F)c2)on1", "hERG current change (%, negative = inhibition) at 1uM": 16.1}
{"compound": "Cc1ccc(NC(=O)CN(C)S(=O)(=O)c2cccc3nsnc23)cc1", "hERG current change (%, negative = inhibition) at 1uM": 2.47}
{"compound": "CC(CCc1ccccc1)NC(=O)CN1CCOc2ccccc21", "note": "(centres unmarked)", "hERG current change (%, negative = inhibition) at 1uM": 1.75}
{"compound": "CC(OC(=O)/C=C/c1cccs1)C(=O)Nc1ccc(S(N)(=O)=O)cc1", "note": "(centres unmarked)", "hERG current change (%, negative = inhibition) at 1uM": 3.24}
{"compound": "Cc1nc2ccccn2c1C(=O)NN", "hERG current change (%, negative = inhibition) at 1uM": 4.1}
{"compound": "c1ccc(C(NCCNC(c2ccccc2)c2ccccc2)c2ccccc2)cc1", "hERG current change (%, negative = inhibition) at 1uM": 12.6}
{"compound": "CNc1ccc(/C=C2\\COc3ccccc3C2=O)cc1[N+](=O)[O-]", "hERG current change (%, negative = inhibition) at 1uM": 5.43}
{"compound": "CC(=O)N1CCc2c(sc(NC(=O)CCS(=O)(=O)c3ccc(C)cc3)c2C(N)=O)C1", "hERG current change (%, negative = inhibition) at 1uM": 10.3}
{"compound": "O=C1OC2(c3ccccc3)C3CCCC2C13", "hERG current change (%, negative = inhibition) at 1uM": 11.8}
{"compound": "COCc1cc(C)nc(SCC[N+](C)(C)CC(=O)c2ccc(Br)cc2)c1C#N.[Br-]", "hERG current change (%, negative = inhibition) at 1uM": 8.71}
{"compound": "Br.Cn1c(=N)n(CC(=O)c2ccc(Br)cc2)c2ccccc21", "hERG current change (%, negative = inhibition) at 1uM": -2.79}
{"compound": "O=C1OC(c2ccccc2)=N/C1=C\\N1CCCCC1", "hERG current change (%, negative = inhibition) at 1uM": 11}
{"compound": "O=C(NCCc1c[nH]c2ccccc12)c1cc(S(=O)(=O)N2CCCCC2)ccc1N1CCOCC1", "hERG current change (%, negative = inhibition) at 1uM": 4.14}
{"compound": "Cc1ccccc1CS(=O)(=O)c1ccc(C(=O)N2CCOCC2)cc1[N+](=O)[O-]", "hERG current change (%, negative = inhibition) at 1uM": -11}
{"compound": "Cc1ccc(-c2nn(CC(=O)N3CCOCC3)c(=O)c3ccccc23)cc1S(=O)(=O)N(C)C", "hERG current change (%, negative = inhibition) at 1uM": 4.03}
{"compound": "COc1cc(C2SCC(=O)Nc3c2c(=O)[nH]n3C2CCCCCC2)cc(OC)c1OC", "note": "(centres unmarked)", "hERG current change (%, negative = inhibition) at 1uM": 1.79}
{"compound": "O=c1c2[nH]c3ccc(F)cc3c2ncn1CC1CCCO1", "note": "(centres unmarked)", "hERG current change (%, negative = inhibition) at 1uM": 4.81}
{"compound": "Fc1ccc(NC(=S)N2CCc3ccccc3C2)c(F)c1", "hERG current change (%, negative = inhibition) at 1uM": 8.56}
{"compound": "Br.N=c1scc(-c2ccccc2)n1/N=C/c1ccco1", "hERG current change (%, negative = inhibition) at 1uM": 13.4}
{"compound": "CC(C)(C)OC(=O)NNC(=O)c1ccc(Cl)cc1", "hERG current change (%, negative = inhibition) at 1uM": 8.45}
{"compound": "CCc1nnc(NC(=O)c2ccc(S(=O)(=O)N(C)c3ccccc3)cc2)o1", "hERG current change (%, negative = inhibition) at 1uM": -8.63}
